Test results taken from the supplement of paper PMC12578646, “Prodrug florfenicol amine is activated by intrinsic resistance to target Mycobacterium abscessus” (Nature Microbiology, 2025).

Experiments:
Assay in all cases: growth relative to untreated wells; higher = more growth (less inhibition)
[1] = system: Mycobacterium abscessus ATCC 19977 ΔwhiB7
Protocol: (§1)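 384-well two-fold dose series, two replicates; 5 days at 37 °C, then 24 h with resazurin; fluorescence scaled to growth and killed controls.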

[2] = system: Mycobacterium abscessus ATCC 19977 Δeis2
Protocol: as §1

[3] = system: Mycobacterium abscessus ATCC 19977 Eis2 Y284*
Protocol: as §1

[4] = system: Mycobacterium abscessus ATCC 19977 Eis2 Y227D
Protocol: as §1

[5] = system: Mycobacterium abscessus ATCC 19977 Eis2 T258R
Protocol: as §1

[6] = system: Mycobacterium abscessus ATCC 19977 WhiB7 F24fs
Protocol: as §1

[7] = system: Mycobacterium abscessus ATCC 19977 Eis2 E120fs
Protocol: as §1

[8] = system: Mycobacterium abscessus ATCC 19977 Eis2 Y255*
Protocol: as §1

[9] = system: Mycobacterium abscessus ATCC 19977 WhiB7 A51T
Protocol: as §1

[10] = system: Mycobacterium abscessus ATCC 19977 WhiB7 L37P
Protocol: as §1

[11] = system: Mycobacterium abscessus ATCC 19977 WhiB7 T70fs
Protocol: as §1

[12] = system: Mycobacterium abscessus ATCC 19977
Protocol: as §1

SMILES: CN(C)c1cc(CNCC(C)(C)C)c(O)c2c1C[C@H]1C[C@H]3[C@H](N(C)C)C(O)=C(C(N)=O)C(=O)[C@@]3(O)C(O)=C1C2=O [omadacycline]
- growth ([1]; 0.00625 µg/mL): 89.4 ± 3.5%
- growth ([1]; 0.0125 µg/mL): 103 ± 2%
- growth ([1]; 0.025 µg/mL): 87.5 ± 5.9%
- growth ([1]; 0.05 µg/mL): 89.4 ± 5.9%
- growth ([1]; 0.1 µg/mL): 87.5 ± 2.2%
- growth ([1]; 0.2 µg/mL): 91.42 ± 0.61%
- growth ([1]; 0.4 µg/mL): 92.3 ± 7.5%
- growth ([1]; 0.8 µg/mL): 6.25 ± 3.3%
- growth ([1]; 1.6 µg/mL): -8.16 ± 5.2%
- growth ([1]; 3.2 µg/mL): -0.402 ± 8.4%
- growth ([1]; 6.4 µg/mL): -11 ± 5.3%
- growth ([1]; 12.8 µg/mL): -10.8 ± 5.5%
- growth ([2]; 0.00625 µg/mL): 92.8 ± 2.1%
- growth ([2]; 0.0125 µg/mL): 93.9 ± 6.6%
- growth ([2]; 0.025 µg/mL): 95 ± 3.8%
- growth ([2]; 0.05 µg/mL): 93.5 ± 2.7%
- growth ([2]; 0.1 µg/mL): 90.7 ± 1.9%
- growth ([2]; 0.2 µg/mL): 93.3 ± 4.7%
- growth ([2]; 0.4 µg/mL): 103 ± 4.1%
- growth ([2]; 0.8 µg/mL): 75.4 ± 46%
- growth ([2]; 1.6 µg/mL): -1.85 ± 3.1%
- growth ([2]; 3.2 µg/mL): -8.73 ± 0.15%
- growth ([2]; 6.4 µg/mL): -9.304 ± 0.09%
- growth ([2]; 12.8 µg/mL): -9.59 ± 0.72%
- growth ([3]; 0.00625 µg/mL): 101 ± 6.9%
- growth ([3]; 0.0125 µg/mL): 98.6 ± 4.5%
- growth ([3]; 0.025 µg/mL): 96.9 ± 8.4%
- growth ([3]; 0.05 µg/mL): 98.2 ± 7.1%
- growth ([3]; 0.1 µg/mL): 96.1 ± 7.2%
- growth ([3]; 0.2 µg/mL): 98.9 ± 3.9%
- growth ([3]; 0.4 µg/mL): 102 ± 7.1%
- growth ([3]; 0.8 µg/mL): 105 ± 4.5%
- growth ([3]; 1.6 µg/mL): -1.98 ± 0.78%
- growth ([3]; 3.2 µg/mL): -8.2832 ± 0.00018%
- growth ([3]; 6.4 µg/mL): -8.934 ± 0.053%
- growth ([3]; 12.8 µg/mL): -9.13 ± 0.36%
- growth ([4]; 0.00625 µg/mL): 100.9 ± 0.37%
- growth ([4]; 0.0125 µg/mL): 108 ± 8.8%
- growth ([4]; 0.025 µg/mL): 98.8 ± 5.8%
- growth ([4]; 0.05 µg/mL): 105 ± 8.1%
- growth ([4]; 0.1 µg/mL): 100 ± 9.1%
- growth ([4]; 0.2 µg/mL): 104 ± 3.9%
- growth ([4]; 0.4 µg/mL): 109 ± 6.8%
- growth ([4]; 0.8 µg/mL): 99.4 ± 22%
- growth ([4]; 1.6 µg/mL): -1.86 ± 2%
- growth ([4]; 3.2 µg/mL): -7.27 ± 0.52%
- growth ([4]; 6.4 µg/mL): -7.66 ± 0.31%
- growth ([4]; 12.8 µg/mL): -7.847 ± 0.028%
- growth ([5]; 0.00625 µg/mL): 92.9 ± 1.1%
- growth ([5]; 0.0125 µg/mL): 97.9 ± 13%
- growth ([5]; 0.025 µg/mL): 94.5 ± 11%
- growth ([5]; 0.05 µg/mL): 98.9 ± 5%
- growth ([5]; 0.1 µg/mL): 92.2 ± 1.4%
- growth ([5]; 0.2 µg/mL): 92.4 ± 4.3%
- growth ([5]; 0.4 µg/mL): 94.5 ± 3.9%
- growth ([5]; 0.8 µg/mL): 77.7 ± 35%
- growth ([5]; 1.6 µg/mL): 0.484 ± 5.5%
- growth ([5]; 3.2 µg/mL): -8.2 ± 0.2%
- growth ([5]; 6.4 µg/mL): -9.12 ± 0.38%
- growth ([5]; 12.8 µg/mL): -9.26 ± 0.19%
- growth ([6]; 0.00625 µg/mL): 101.2 ± 0.48%
- growth ([6]; 0.0125 µg/mL): 103 ± 1.1%
- growth ([6]; 0.025 µg/mL): 93.9 ± 2.2%
- growth ([6]; 0.05 µg/mL): 105 ± 10%
- growth ([6]; 0.1 µg/mL): 95 ± 7.6%
- growth ([6]; 0.2 µg/mL): 100.7 ± 0.3%
- growth ([6]; 0.4 µg/mL): 101 ± 4.2%
- growth ([6]; 0.8 µg/mL): -1.1 ± 0.64%
- growth ([6]; 1.6 µg/mL): -6.17 ± 0.68%
- growth ([6]; 3.2 µg/mL): -8.44 ± 0.56%
- growth ([6]; 6.4 µg/mL): -8.98 ± 0.67%
- growth ([6]; 12.8 µg/mL): -8.5 ± 0.46%
- growth ([7]; 0.00625 µg/mL): 95.1 ± 13%
- growth ([7]; 0.0125 µg/mL): 109 ± 7%
- growth ([7]; 0.025 µg/mL): 95 ± 7.2%
- growth ([7]; 0.05 µg/mL): 101 ± 8.5%
- growth ([7]; 0.1 µg/mL): 99.9 ± 4%
- growth ([7]; 0.2 µg/mL): 102 ± 13%
- growth ([7]; 0.4 µg/mL): 114 ± 7.3%
- growth ([7]; 0.8 µg/mL): 98 ± 8.4%
- growth ([7]; 1.6 µg/mL): -2.64 ± 0.6%
- growth ([7]; 3.2 µg/mL): -8.57 ± 0.2%
- growth ([7]; 6.4 µg/mL): -9.29 ± 0.28%
- growth ([7]; 12.8 µg/mL): -9.45 ± 0.61%
- growth ([8]; 0.00625 µg/mL): 95.8 ± 9.5%
- growth ([8]; 0.0125 µg/mL): 104 ± 9.1%
- growth ([8]; 0.025 µg/mL): 85.9 ± 6.6%
- growth ([8]; 0.05 µg/mL): 101 ± 5.2%
- growth ([8]; 0.1 µg/mL): 96.1 ± 2.7%
- growth ([8]; 0.2 µg/mL): 100 ± 9.3%
- growth ([8]; 0.4 µg/mL): 103 ± 4.1%
- growth ([8]; 0.8 µg/mL): 94.1 ± 1%
- growth ([8]; 1.6 µg/mL): -3.7 ± 3.4%
- growth ([8]; 3.2 µg/mL): -9.57 ± 2.3%
- growth ([8]; 6.4 µg/mL): -10.6 ± 2.3%
- growth ([8]; 12.8 µg/mL): -10.3 ± 2.2%
- growth ([9]; 0.00625 µg/mL): 92.9 ± 6.1%
- growth ([9]; 0.0125 µg/mL): 102 ± 5.9%
- growth ([9]; 0.025 µg/mL): 87.18 ± 0.66%
- growth ([9]; 0.05 µg/mL): 103 ± 3%
- growth ([9]; 0.1 µg/mL): 82 ± 4%
- growth ([9]; 0.2 µg/mL): 93.9 ± 5.3%
- growth ([9]; 0.4 µg/mL): 102 ± 12%
- growth ([9]; 0.8 µg/mL): 9.62 ± 15%
- growth ([9]; 1.6 µg/mL): -7.13 ± 0.6%
- growth ([9]; 3.2 µg/mL): -9.19 ± 0.77%
- growth ([9]; 6.4 µg/mL): -9.64 ± 0.26%
- growth ([9]; 12.8 µg/mL): -9.55 ± 0.85%
- growth ([10]; 0.00625 µg/mL): 92.9 ± 9%
- growth ([10]; 0.0125 µg/mL): 104 ± 3.6%
- growth ([10]; 0.025 µg/mL): 86.3 ± 1.7%
- growth ([10]; 0.05 µg/mL): 100 ± 12%
- growth ([10]; 0.1 µg/mL): 100.4 ± 0.19%
- growth ([10]; 0.2 µg/mL): 102 ± 7.2%
- growth ([10]; 0.4 µg/mL): 106 ± 2.8%
- growth ([10]; 0.8 µg/mL): -2.2 ± 0.47%
- growth ([10]; 1.6 µg/mL): -6.56 ± 0.083%
- growth ([10]; 3.2 µg/mL): -8.31 ± 0.68%
- growth ([10]; 6.4 µg/mL): -8.73 ± 0.47%
- growth ([10]; 12.8 µg/mL): -8.23 ± 0.53%
- growth ([11]; 0.00625 µg/mL): 92.73 ± 0.73%
- growth ([11]; 0.0125 µg/mL): 105 ± 3.5%
- growth ([11]; 0.025 µg/mL): 100 ± 1.7%
- growth ([11]; 0.05 µg/mL): 105 ± 3.7%
- growth ([11]; 0.1 µg/mL): 93.9 ± 6.6%
- growth ([11]; 0.2 µg/mL): 97.2 ± 1.9%
- growth ([11]; 0.4 µg/mL): 101.2 ± 0.77%
- growth ([11]; 0.8 µg/mL): -3.27 ± 1.7%
- growth ([11]; 1.6 µg/mL): -8.89 ± 1.6%
- growth ([11]; 3.2 µg/mL): -7.32 ± 2.9%
- growth ([11]; 6.4 µg/mL): -10.5 ± 0.94%
- growth ([11]; 12.8 µg/mL): -10.4 ± 1%
- growth ([12]; 0.00625 µg/mL): 92.5 ± 6%
- growth ([12]; 0.0125 µg/mL): 102 ± 4.7%
- growth ([12]; 0.025 µg/mL): 98.5 ± 5.5%
- growth ([12]; 0.05 µg/mL): 104 ± 1.3%
- growth ([12]; 0.1 µg/mL): 93.6 ± 4.6%
- growth ([12]; 0.2 µg/mL): 98.1 ± 8.8%
- growth ([12]; 0.4 µg/mL): 104 ± 9.5%
- growth ([12]; 0.8 µg/mL): 73.5 ± 34%
- growth ([12]; 1.6 µg/mL): -1.99 ± 2.6%
- growth ([12]; 3.2 µg/mL): -7.76 ± 0.46%
- growth ([12]; 6.4 µg/mL): -8.51 ± 0.8%
- growth ([12]; 12.8 µg/mL): -8.7 ± 0.53%

± gives the standard deviation of the averaged measurements. M. abscessus ATCC 19977 and its deletion, point and complemented mutants after 5 days of drug at 37 °C plus 24 h of resazurin. Growth in % of untreated wells at the dose given (lower = more inhibition); checkerboards give % inhibition (higher = more inhibition); IC50 from the fitted curve (lower = more potent). No active / inactive call. IC50 values come from the same 384-well curves. Growth is not capped and can exceed 100%. The direction of the checkerboard scale is read from the raw signals. Capreomycin is a mixture.
